In the supplement of paper PMC11880418:
Where a name gives a salt, the structure may show the parent alone. Some of the results follow. The data scatter; read single values as rough.

tested on: T84; assay: ALDHbr (CSC) cell proportion score relative to DMSO vehicle (ratio to DMSO); breast (SUM159) / gastric (MKN45) / pancreatic (PANC1) / colon cancer lines; ALDHbr cells have high ALDH activity and are rich in cancer stem cells (CSC); higher = more CSC (ALDHbr) cells remaining; details: 10 µM; 72 h
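Further: High-content imaging of ALDEFLUOR-stained cells with Hoechst-labelled nuclei in 384-well plates, triplicate wells, scored as Z-score against 0.1% DMSO vehicle, negative meaning fewer ALDHbr cells.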

Row | SMILES | ALDHbr
1 | CCCCOc1ccc(CC(=O)NO)cc1 [Bufexamac] | 0.651
2 | Nc1ncn(C2OC(CO)C(O)C2O)c(=O)n1 (stereo not given) [Azacytidine-5] | 1.76
3 | COc1cc([C@@H]2c3cc4c(cc3[C@@H](O[C@@H]3O[C@@H]5CO[C@@H](C)O[C@H]5[C@H](O)[C@H]3O)[C@H]3COC(=O)[C@H]23)OCO4)cc(OC)c1O [Etoposide] | 0.432
4 | CC(=O)OCC(=O)[C@@]12N=C(C)O[C@@H]1C[C@H]1[C@@H]3CCC4=CC(=O)C=C[C@]4(C)[C@H]3[C@@H](O)C[C@@]12C [Deflazacort] | 1.04
5 | CC(CNC1CCCCC1)OC(=O)c1ccccc1 (stereo not given) [Hexylcaine hydrochloride] | 1.06
6 | CCOC(=O)C1=C(C)NC(C)=C(C(=O)OCC)C1c1ccccc1/C=C/C(=O)OC(C)(C)C [Lacidipine] | 0.714
7 | O=C(Nc1cccc2c(=O)cc(-c3nnn[nH]3)oc12)c1ccc(OCCCCc2ccccc2)cc1 [Pranlukast] | 1.07
8 | CCN(CC)CCOC(=O)C(c1ccccc1)C1CCCCC1 (stereo not given) [Drofenine hydrochloride] | 0.951
9 | C#C[C@]1(O)CC[C@H]2[C@@H]3CCC4=CC(=O)CC[C@@H]4[C@H]3CC[C@@]21C [Norethindrone] | 1.13
10 | CC1(C)NC(=O)N(c2ccc([N+](=O)[O-])c(C(F)(F)F)c2)C1=O [Nilutamide] | 0.932
